Reference: PubChem BioAssay (NCI)
Where “and” joins values, the source holds several entries; their conditions need not be identical. Equal entries are not always repeated.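 Five concentrations, 48 hours, 96-well plates. At the GI50, growth is halved. TGI denotes the concentration required for complete inhibition of growth.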 Square brackets hold non-standard residues; d marks the D form. Peptide text beside a SMILES is read from it. * marks the point of attachment. NMeF = CN[CH](Cc1ccccc1)C(=O)O; NMeV = CN[CH](C(=O)O)C(C)C; Boc = CC(C)(C)OC(=O)*; OBn = c1ccc(CO*)cc1

What follows are compounds tested on NCI-H322M lung (assay: growth of human tumour cells (NCI), 48 h).

Structure (SMILES)	GI50	TGI
Cc1cc(=O)c2c(O)c3c(O)cc(O)c4c5c(O)cc(O)c6c(O)c7c(=O)cc(C)c8c1c2c(c34)c(c65)c78	> 100 µM and 23.1 µM	> 100 µM and 57.4 µM
CC1(C)CCc2cc3c(cc2O1)OC(C)(C)C1c2c(ccc4c2CCC(C)(C)O4)OC31 (stereo unspecified)	–	> 100 µM
Cc1ccc(O)c(Cc2nc3ccccc3nc2-c2cccc(Br)c2)c1	–	> 100 µM
COCC(=O)[C@]1(O)Cc2c(O)c3c(c(O)c2[C@@H](OC2CC(N)C(O)C(C)O2)C1)C(=O)c1c(OC)cccc1C3=O (stereo partly specified)	–	2.09 µM
CC(C)C(NC(=O)OC(C)(C)C)C(=O)N(C)C(Cc1ccccc1)C(=O)N(C)C(C(=O)N(C)C(C(=O)OCc1ccccc1)C(C)C)C(C)C (stereo unspecified) (Boc-V[NMeF][NMeV][NMeV]-OBn; configuration not given here)	–	> 100 µM
CSc1nc2c(nc(N)n2C2OCC(O)C(O)C2O)c(=O)[nH]1 (stereo unspecified)	–	> 100 µM
CC(O)(c1ccccc1)c1nccc2ccccc12 (stereo unspecified)	–	> 100 µM
CCCCCCC(CCl)c1sc(-c2csc(CCNC(=O)OC(C)(C)C)n2)nc1C(=O)OC (stereo unspecified)	–	> 100 µM
NC(=O)Nc1ccc2ncnc(Nc3ccc(Cl)cc3)c2c1	0.594 µM	> 25.8 µM
CN(N)C(=O)NCCCl	–	> 100 µM
CC(=O)OC1CCC2(C)C(CCC3C2CCC2(C)C(C4=CC(=O)OC4)CCC32)C1 (stereo unspecified)	2.18 µM	6.22 µM
O=C1C=C(N2CC2)c2ccccc2C1=O	1.79 µM	3.22 µM
COc1cc(C/C=C/c2ccccc2)c(OC)cc1O	–	> 100 µM
Clc1ccc(OCC2NC3C=CC32)cn1 (stereo unspecified)	–	> 100 µM
O=C1C=CC2(O[C@@H](Cc3ccccc3)[C@H](Cc3ccccc3)O2)C(SC(=O)c2ccccc2)C1 (stereo partly specified)	–	23.8 µM
C=C1C(=O)[C@]23[C@H](O)[C@H]1CC[C@H]2[C@@]12CO[C@@]3(O)C[C@@H]1C(C)(C)CC[C@@H]2O	–	> 25 µM
CN(C)c1nc(N(C)C)nc(N(C)CN(C)c2nc(N(C)C)nc(N(C)C)n2)n1	–	> 100 µM
C=C1c2nc3ccccc3n2C=C(c2ccc(Cl)cc2)N1c1ccccc1	–	> 100 µM
COc1ccc(C2C(C(=O)O)=C(COC(C)=O)Oc3cc4c(cc32)OCO4)cc1 (stereo unspecified)	–	> 100 µM
O=C1c2ccccc2C(=O)N1C(=S)c1ccccc1	–	> 100 µM
C#CCOCn1cnc2ncnc(Cl)c21	–	> 100 µM
C=CCC1NCCC2=C1C(S(=O)(=O)c1ccc(C)cc1)c1ccccc12 (stereo unspecified)	–	25.5 µM
Brc1cccc(C2(CCCC3(c4cccc(Br)n4)OCCO3)OCCO2)n1	–	> 100 µM
C=CCN1CC2CN=NC2(C#N)C1 (stereo unspecified)	–	> 100 µM
CC[C@](O)(C(=O)O)c1cc2n(c(=O)c1CO)Cc1cc3ccccc3nc1-2	0.13 µM and 0.0743 µM	18.8 µM and 15.5 µM

Structure (SMILES)	GI50	TGI
CC(=O)Oc1ccc(OC(Oc2ccccc2)c2ccccc2)cc1 (stereo unspecified)	–	> 100 µM
COc1ccc2nc(-c3ccccc3)cc(Nc3ccc(/C(C)=N/O)cc3)c2c1	2.31 µM	7.75 µM
CCOC(=O)CNC(SC)=C(C#N)C#N	–	> 100 µM
O=C(Cc1ccc(/C=C/C(=O)c2ncc[nH]2)cc1)Nc1ccc(Br)cc1	3.71 µM	13.8 µM
Cc1cc[c-]cc1.Fc1c[c-]c(-c2ccccn2)c(F)c1.N#CCC[PH+](CCC#N)c1ccccc1.[Pt+2]	5.24 µM	> 100 µM
COc1ccc(N2CCN(c3ccc4c(c3)NCC(=O)N4)CC2)cc1	–	> 100 µM
COc1cc(Nc2ncc3c(n2)-c2ccc(Cl)cc2C(c2c(F)cccc2OC)=NC3)ccc1C(=O)O	26.7 µM	> 95.1 µM
CC(=O)NNC(=O)c1nn(-c2ccc(Cl)cc2)cc1OC(C)=O	11.9 µM	> 100 µM
O=C1Nc2ccccc2NC1C1OC(c2ccccc2)=CC1=O (stereo unspecified)	–	> 100 µM
CC(/C=N/NC1=NCCCCN1)=N\NC1=NCCCCN1	–	> 100 µM
CC(=O)c1ccc2c(c1)oc(=O)n2CCN(C)C	–	> 100 µM
OC(COc1ccc(Cl)cc1Cl)CN1CCCC1 (stereo unspecified)	–	> 100 µM
Sc1nnc(-c2ccccc2Nc2ccccc2-c2nnc(S)n2-c2ccccc2)n1-c1ccccc1	–	> 100 µM
Oc1[nH]c2ccccc2c1N=NC(=S)N1CCCCCC1	–	6 µM
N#Cc1cc2cc3c4c(c2oc1=O)CCCN4CCC3	–	> 100 µM
CC1=CC(=O)c2cccc(NC3=NCCO3)c21	–	> 100 µM
O=C(Nc1ccc2ccccc2c1)Nn1cnnc1	–	> 100 µM
COc1ccc(-c2nnc3n(C)c(=O)c4ccccc4n23)cc1O	2.58 µM	> 82.1 µM
CC(=O)O[C@H]1CC[C@@]2(C)C(=CC[C@@H]3[C@@H]2CC[C@]2(C)c4nc(N)c(C#N)cc4C[C@@H]32)C1	–	85.6 µM
COc1cc(N(C)C)ccc1/C=c1/c2ccccc2n2c1cc(-c1ccccc1)[n+]2C	–	2.09 µM
CCOC(=O)/C=C(/C(=O)OCC)n1c(=O)c(C)cn(C2CC(N=[N+]=[N-])C(CO)O2)c1=O (stereo unspecified)	–	> 100 µM
CC(NC(=O)C(C)C(=O)NCc1ccc(C(F)(F)F)cc1)C(N)=O (stereo unspecified)	–	> 100 µM
O=C1C[C@@H](c2ccccc2)NCCCCN(O)CCCN1	–	> 100 µM
[N-]=[N+]=C1CNC(=O)NC1=O	–	> 100 µM
Cc1cc2nc3ccc(N=Nc4ccc(N(C)C)cc4)cc3n(-c3ccccc3)c-2cc1=N	0.223 µM	1.78 µM

Structure (SMILES)	GI50	TGI
O=C1OCC2=C1C(c1cccc(F)c1)c1cc3c(cc1N2CCO)OCCO3 (stereo unspecified)	0.337 µM	> 50 µM
O=C(c1ccc(Cl)cc1)N(C(=S)N1CCN(c2ccccn2)CC1)c1ccccc1	–	> 100 µM
N#CC1N(C(=O)c2ccc(F)cc2)c2ccccc2N1C(=O)c1ccc(F)cc1	–	> 100 µM
OCCc1cnco1	–	> 100 µM
CN(C)CCCNC(=O)c1cc2c3ccccc3[nH]c2c2ncccc12	20.4 µM	59 µM
O=C(CCCn1ccnc1[N+](=O)[O-])NCCn1cnc([N+](=O)[O-])c1	–	> 100 µM
COc1cc(NCC(C#N)C#N)ccc1N=Nc1ccc([N+](=O)[O-])cc1	–	> 100 µM
COC(=O)c1[nH]nc(-c2ccccc2)c1N1CCCCC1	30.6 µM	63 µM
COc1cc2c(cc1OCCCCC(=O)Nc1ccc(-c3nc4ccccc4s3)cc1)N=C[C@@H]1CCCN1C2=O	2.81 µM	8.45 µM
CC(=O)OCCC/C(=C\c1ccc2ccccc2c1)[N+](=O)[O-]	2.02 µM	4.82 µM
Cc1sc2nc(-c3ccccn3)c(/C=N/N=C(N)N)n2c1C	9.08 µM	17.1 µM
CC(C)O/C=C1\C(=O)C2(SCCS2)[C@H]2CCCC[C@@H]12	–	> 100 µM
O=C1C[C@H](c2ccccc2)C2(C(=O)c3ccccc3C2=O)[C@@H](c2ccccc2)C1	–	> 100 µM
C1OCN2c3nonc3N3COCN4c5nonc5N1C2C43 (stereo unspecified)	–	> 100 µM
O=c1[nH]c(=O)n(C2CC(O)C(CO)O2)cc1NN=NCc1ccccc1 (stereo unspecified)	–	> 100 µM
C[C@]12CCC(=O)C=C1CC[C@@H]1[C@@H]2C(=O)C[C@@]2(C)[C@H]1CC[C@]2(O)C(=O)CO	–	> 100 µM
O=C(Cc1ccccc1)Nc1nnc(CCSCCc2nnc(NC(=O)Cc3ccccc3)s2)s1	2.63 µM	58.5 µM
c1ccc(C(=NNc2nc3ccccc3[nH]2)c2ccccn2)nc1	–	1.95 µM
NNC(=O)CC(=O)Nc1ccccc1F	–	> 100 µM
COc1cc(C2c3cc4c(cc3C3OC(=O)C2C3CO)OCO4)cc(OC)c1OC (stereo unspecified)	0.0562 µM	> 100 µM
CC(C)OC(=O)c1ccc(CCC2=CC(=O)C(Br)=CC2=O)cc1	–	> 66.8 µM
COc1ccc2[nH]c(C(=O)N3CC(CCl)c4ccc([N+](=O)[O-])cc43)cc2c1 (stereo unspecified)	–	> 100 µM
Cc1cc(N(CCCNc2ccnc3cc(Cl)ccc23)Cc2cccs2)nc(Cl)n1	4.1 µM	17.3 µM
Cc1ccc([N+](=O)[O-])cc1S(=O)(=O)Nc1ccc(C2=NN(c3ccc([N+](=O)[O-])cc3[N+](=O)[O-])C(c3ccccc3O)C2)cc1 (stereo unspecified)	–	> 100 µM
COC(=O)Nc1nc2c(OC)c(OC)c(OC)cc2[nH]1	34.3 µM	> 100 µM

Structure (SMILES)	GI50	TGI
COc1ccc(N2CCN(CC(=O)N3CCN(c4nnc(-c5ccccc5)c(-c5ccccc5)n4)CC3)CC2)cc1	> 67.5 µM	> 100 µM
O=C1CC(c2ccccc2)Cc2nc3ccc(Cl)cc3cc21 (stereo unspecified)	0.841 µM	> 100 µM
O=C1Nc2ccccc2C12CC(c1ccccc1)=NN2 (stereo unspecified)	4.7 µM	> 100 µM
O=C([C@H](O)[C@@H](O)c1ccc(Br)cc1)C12CC3CC(CC(C3)C1)C2	–	32.2 µM
CC(=O)NC1C(OCc2ccccc2)OC(CO)C(O)C1OCC(=O)NC(C)C(=O)NC(CCC(=O)NCCCCCC(=O)Nc1ccc2c(c1)CN1C(=O)c3ccccc3C1=N2)C(N)=O (stereo unspecified)	–	> 100 µM
NCCCCNCCCN	–	> 100 µM
Cc1ccc(S(=O)(=Nc2ccccc2)C(C(C)C)C(C)(C)Cl)cc1 (stereo unspecified)	–	> 50 µM
Cn1c(=O)c(C(c2ccccc2)c2c(O)c3ccccc3n(C)c2=O)c(O)c2ccccc21	–	> 100 µM
COC(=O)c1ccc(C)cc1C1CN=NC12Cc1cc(C)c(C)cc1C2=O (stereo unspecified)	–	> 100 µM
CCCCNC(=S)/N=C/c1c(O)c2ccccc2oc1=O	–	> 100 µM
COc1ccc(OC)c(CNc2ccc(O)c(C(=O)NCCc3ccc(F)cc3)c2)c1	–	73.3 µM
COc1ccc2oc(-c3ccncc3)cc(=O)c2c1	–	> 100 µM
COc1cc(/C=C(\NC(=O)c2ccccc2)c2nc3ccc([N+](=O)[O-])cc3[nH]2)cc(OC)c1OC	–	> 100 µM
O=C(c1ccc(Cl)cc1)N(Cc1cccnc1)C(=S)N(Cc1cccnc1)C(=O)c1ccc(Cl)cc1	–	87.4 µM
Cn1cc2ccccc2c1-c1nc(F)nc(Oc2ccc3c(c2)CC[C@@H]2C3CC[C@]3(C)C(O)CCC23)n1 (stereo partly specified)	–	71.9 µM
O=C(CCc1cc(O)cc(O)c1)NCCc1ccc(O)c(O)c1	–	> 100 µM
O=C1C2Cc3ccccc3CN2C(=O)N1CN1CCN(CN2C(=O)C3Cc4ccccc4CN3C2=O)CC1 (stereo unspecified)	–	> 100 µM
Cc1c(N2C(=O)/C(=C\c3ccc(O)cc3)N=C2c2ccccc2)c(=O)n(-c2ccccc2)n1C	> 100 µM	> 100 µM
O=c1c2cc(-c3ccccc3)cnc2sn1-c1ccc([N+](=O)[O-])cc1	–	> 100 µM
O=C1c2cnccc2Cc2cccc3c2N1c1ccccc1S3	–	> 100 µM
C=C(C)CC1=C(C(=S)NCCO[Si](C)(C)C(C)(C)C)C(OCC)(OCC)C1=O	–	41.8 µM
COC(=O)C1(NC(=O)C(N)CC(=O)O)C(C)C1C (stereo unspecified)	–	> 100 µM
N/C(=N\Nc1nc2cc([N+](=O)[O-])ccc2o1)c1ccccn1	–	8.45 µM
Cc1ccc(NC(=O)c2cccc([N+](=O)[O-])c2O)c(C)c1	–	72.7 µM
C/C=C/C=C/C1=NN(c2cccc(S(=O)(=O)O)c2)C2(C1)SCC(=O)N2c1nc2ccccc2s1 (stereo unspecified)	–	> 100 µM
